In PubChem BioAssay AID504832 (National Center for Advancing Translational Sciences (NCATS), 2011):
Out of some 310,000 compounds screened, about 18,000 (5.8%) were called active. The shares of active, inactive and inconclusive entries below differ from those in the screen. The call rests on the fitted dose curve; in most records, active means well fitted inhibition curve with a large enough effect; inconclusive means small, poorly fitted or top-dose-only effect, or another doubt; inactive means no such curve, though single readings can be large or run the other way. No potency is given beside an inconclusive call; the fits are too rough.

test: Primary qHTS for delayed death inhibitors of the malarial parasite plastid, 48 hour incubation; conditions: P. falciparum luciferase growth in erythrocytes; series mostly up to 28.7 µM; activity change, negative = inhibition: at the top concentration
Summary of the method: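 Read-out is firefly luciferase luminescence from an integrated reporter in P. falciparum, so falling signal marks reduced parasite growth. Infected erythrocytes were at 2% hematocrit and 0.1% parasitemia (final) in Albumax-supplemented RPMI 1640.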
On the % scale 0 is the no-effect control and ±100 the full control effect; potency means the concentration at half of the fitted maximal effect; tags describe the fitted curve by direction and shape.

SMILES | activity change, negative = inhibition | Potency
COc1cc2cccc(OC)c(=O)c2c(O)c1OC | inactive: 58% | –
CCOc1cc(S(=O)(=O)N2CC=C(c3ccc(F)cc3)CC2)c(OCC)cc1-n1cnnn1 | – | active: 7.38 µM
CN(C(=O)COC(=O)c1ccccc1C(=O)N(C)c1ccccc1)c1ccccc1 | – | inconclusive [inhibitor, single point]
Cc1cccc(C(=O)Nc2ccccc2C(=O)OCc2c(C)noc2C)c1 | – | inconclusive [inhibitor, single point]
CCc1noc(C)c1C(=O)Nc1nc(-c2ccc(OC)cc2)cs1 | inactive: 15.9% | –
N#CCC(CNc1ncc(C(F)(F)F)cc1Cl)OC(=O)c1cccc([N+](=O)[O-])c1 (stereo not drawn) | – | active: 13.1 µM
CCC(C)(C)c1ccc(OCCCC[n+]2ccccc2)c(C(C)(C)CC)c1 | – | active: 2.08 µM
COc1cc2nc(/C=C/c3ccc(N(C)C)cc3)sc2cc1SC | – | inconclusive [inhibitor, single point]
CCN(CC)c1ccc(NC(=O)CCc2nnc3ccc(N4CCCCC4)nn23)c(C)c1 | – | inconclusive [inhibitor, partial curve]
O=C(O)c1ccccc1C(=O)NNc1ccc(F)cc1F | inactive: 21% | –
COc1ccc(C(=O)Nc2ccncc2)cc1[N+](=O)[O-] | – | active: 8.28 µM
Nc1nc(CN2CCN(c3cccc(Cl)c3)CC2)nc(N2CCCc3ccccc32)n1 | – | inconclusive [inhibitor, single point]
CCOc1ccc(CNC(=O)C2CCN(C(=O)N3CC(C)Oc4ccccc43)CC2)cc1 (stereo not drawn) | – | inconclusive [inhibitor, single point]
O=C(/C=C/c1ccc(Cl)c([N+](=O)[O-])c1)c1cccnc1 | inactive: 3.69% | –
CCOc1ccc(S(=O)(=O)N(CC)CC)cc1NC(=O)CSCc1c(C)noc1C | – | inconclusive [inhibitor, partial curve]
COc1ccc(-c2csc3ncnc(N4CCN(c5ccccc5)CC4)c23)cc1 | – | inconclusive [inhibitor, partial curve, poor fit]
N#CC1(c2ccc(NC(=O)c3ccccc3)cc2)CCCC1 | inactive: 55% | –
COc1ccc(C2CC3(CC(C)(C)NC(SC)=N3)Oc3cc(O)cc(C)c32)cc1 (stereo not drawn) | – | inconclusive [inhibitor, single point]
CC(=O)c1ccc(NC(=O)C2(c3ccccc3)CC2(Cl)Cl)cc1 (stereo not drawn) | – | inconclusive [inhibitor, single point]
CCN1CCN(S(=O)(=O)c2ccc(Cl)c(C(=O)Nc3cc(Cl)ccc3N3CCOCC3)c2)CC1 | – | inconclusive [inhibitor, partial curve, poor fit]
CC(C)Oc1ccc(CN2CCCC(CO)(Cc3ccc(F)cc3)C2)cc1 (stereo not drawn) | – | inconclusive [inhibitor, single point]
O=C(OC1C[C@H]2CC[C@@H](C1)[N+]21CCCC1)C(O)(c1ccccc1)c1ccccc1 (stereo partly drawn) | – | active: 6.75 µM
O=C(Nc1nnc(Cc2ccccc2F)s1)c1ccccc1Cl | inactive: 36.8% | –

SMILES | activity change, negative = inhibition | Potency
O=C1NC(=O)/C(=C/c2ccccc2Oc2ccc(Cl)cc2)S1 | inactive: 8.8% | –
CC(=O)N(C(C)=O)c1c(N2CCCC2)c2ccccc2oc1=O | – | inconclusive [inhibitor, partial curve]
O=C(CSc1nc2ccccc2o1)N1c2ccccc2Sc2ccc(C(F)(F)F)cc21 | – | active: 13.1 µM
Cc1cc(C)c(O)c(C2(O)C(=O)c3ccccc3C2=O)c1 | – | inconclusive [inhibitor, full curve, poor fit]
Cc1cc(C(=O)CSc2nc(N)cc(N)n2)c(C)n1-c1cccc(C(F)(F)F)c1 | – | inconclusive [inhibitor, single point]
O=C(NNS(=O)(=O)c1ccc(Cl)cc1)c1ccc(S(=O)(=O)N2CCCCC2)cc1 | – | inconclusive [inhibitor, full curve]
Cc1[nH]c2ccccc2c1C(C#N)(C#N)C1C(=O)c2ccccc2C1=O | – | inconclusive [inhibitor, single point]
CCCCn1c(SCC(=O)N2CCC(C)CC2)nc2ccsc2c1=O | – | active: 11.7 µM
[O-]/[N+](=C\c1ccc(OC(F)F)cc1)c1ccccc1 | – | inconclusive [inhibitor, partial curve, poor fit]
Cc1ccccc1-c1nc(CS(=O)CC(=O)NCCN2CCN(Cc3ccccc3)CC2)c(C)o1 (stereo not drawn) | inactive: -4.73% | –
O=C(/C=C/Sc1ccc(C(F)(F)F)cn1)c1ccccc1 | – | inconclusive [inhibitor, single point]
Clc1ccccc1/C=N/c1cc(-c2ccccc2)nn1-c1ccccc1 | – | inconclusive [inhibitor, partial curve, poor fit]
CCn1c(SCC(=O)c2cc(C)ccc2C)nc2cc(S(=O)(=O)N3CCOCC3)ccc21 | – | inconclusive [inhibitor, partial curve]
Cc1ccc(S(=O)(=O)N2CCN(C(=O)CN3C(=O)c4ccc([N+](=O)[O-])cc4C3=O)CC2)cc1C | inactive: -12.9% | –
Cc1nn(C)c(C)c1NC(=O)c1cc2nc(-c3ccco3)cc(C(F)(F)F)n2n1 | – | inconclusive [inhibitor, single point]
CC1(C)CC(=O)CC2(C1)NCC(c1ccccc1Cl)c1c2[nH]c2ccccc12 (stereo not drawn) | – | active: 10.4 µM
COC(=O)C1=C(c2ccc(-c3ccccc3)c(F)c2)C[C@@H]2CC[C@H]1N2C(=O)NCc1ccco1 | – | inconclusive [inhibitor, partial curve, poor fit]
COC(=O)c1cc(Oc2ccc(S(=O)(=O)N3CCOCC3)cc2[N+](=O)[O-])cc(C(=O)OC)c1 | – | inconclusive [inhibitor, single point]
CCn1c(CC(=O)Nc2ccccc2C)nnc1SCC(=O)NC1CCCC1 | – | inconclusive [inhibitor, single point]
O=C(OCc1nnn(Cc2ccccc2)c1-c1c(COC(=O)c2ccccc2)nnn1Cc1ccccc1)c1ccccc1 | – | active: 3.29 µM
CCOc1cc(/C=N/NC(=O)c2ccc3c(c2)OCCO3)cc(Br)c1O | inactive: 1.03% | –
Cc1ccccc1N(C)C(=O)c1coc(=O)c2ccccc12 | – | inconclusive [inhibitor, partial curve, poor fit]
O=C(Nc1cccc(-c2ccc(F)cc2)c1)C1CCCN(Cc2cccnc2)C1 (stereo not drawn) | – | inconclusive [inhibitor, single point]

SMILES | activity change, negative = inhibition | Potency
COC(=O)CCCNC(=O)c1ccccn1 | inactive: 31.7% | –
CCOc1cccc2cc(C(=O)N3CC(C)OC(C)C3)c(=O)oc12 (stereo not drawn) | inactive: 5.36% | –
CC(C)N(Cc1nnc(-c2ccc(Cl)cc2)o1)C(=O)C1=COCCO1 | inactive: -5.65% | –
O=C(CSc1ccc2nnc(-c3ccncc3)n2n1)N1CCc2ccccc21 | inactive: 1.72% | –
CCOC(=O)CN1C(=O)/C(=C/c2cccc(Br)c2)Oc2ccccc21 | – | inconclusive [inhibitor, single point]
COC(=O)c1cn(NC(=O)CC2CCCCC2)c(=O)c2ccccc12 | – | inconclusive [inhibitor, partial curve]
CC(=O)Oc1ccccc1C1C[C@]2(C)CC(=O)NC2N1C(C)=O (stereo partly drawn) | – | inconclusive [inhibitor, partial curve, poor fit]
COc1ccc(-n2c(SCC(=O)Nc3ncc(Cl)cc3Cl)nc3ccccc32)cc1 | – | inconclusive [inhibitor, partial curve]
CCN(CC)C(=O)c1sc2nc(-c3cccs3)cc(-c3ccc(Cl)cc3)c2c1N | – | inconclusive [inhibitor, partial curve, poor fit]
CCN(CC(=O)Nc1cccc(S(=O)(=O)N2CCCCC2)c1)Cc1ccccc1 | – | inconclusive [inhibitor, single point]
COc1ccc(C(C(=O)NC(C)(C)C)N(Cc2ccc(F)cc2)C(=O)CCC(=O)Nc2cc(C)on2)cc1 (stereo not drawn) | – | inconclusive [inhibitor, partial curve, poor fit]
CC(=O)Nc1sc(N/N=C\c2ccccc2Cl)nc1-c1cccs1 | – | inconclusive [inhibitor, single point]
Cc1noc(/C=C/c2ccco2)c1S(=O)(=O)N1CCC(C(=O)N2CCc3ccccc3C2)CC1 | – | active: 9.28 µM
COc1ccc2ccccc2c1/C=N/NC(=O)c1ccccc1F | inactive: 28.8% | –
O=C(Cn1cc(C(F)(F)F)ccc1=O)N/N=C/c1ccc(Cl)cc1 | inactive: 40% | –
Cc1ccc(CN2CCN(Cc3cccn3-c3ccc(Cl)cn3)CC2CCO)o1 (stereo not drawn) | – | inconclusive [inhibitor, partial curve]
CC(=O)c1ccc(S(=O)(=O)N2CCN(C(=O)CSC(=S)N3CCCC3)CC2)cc1 | – | inconclusive [inhibitor, partial curve]
CCCCOc1ccccc1NC(=O)CSc1nnnn1C(C)(C)C | inactive: 13.5% | –
CC1Cc2ccccc2N1C(=O)CNc1ccccc1N1CCCCC1 (stereo not drawn) | – | inconclusive [inhibitor, single point]
COc1ccc(NS(=O)(=O)c2cc3c(cc2C)N(C)CCO3)c(OC)c1 | – | inconclusive [inhibitor, partial curve, poor fit]
COc1cccc(CNC(=O)CCC2CCCN(Cc3cc4ccccc4o3)C2)c1 (stereo not drawn) | – | inconclusive [inhibitor, partial curve, poor fit]
CC(C)N(Cc1nc2ccccc2c(=O)[nH]1)C(=O)c1ccc(NC(=O)CSc2nnnn2C)cc1 | – | inconclusive [inhibitor, single point]
